The source of these data is patent US10034931B2, “Use of EGFR pathway inhibitors to increase immune responses to antigens” (Emory University, priority 2013, dated 2018).

Assay [1] relates to A/California/07/2009 virus. Nature of the assay: Neutralizing antibody titers by microneutralization assay in sera of vaccinated mice. The class given is in vivo, BALB/c mice. Particulars: concomitantly administered with A/California/07/09 subunit influenza vaccine in murine skin.
The test system of assay [2] is IFN-γ-producing and IL-4-producing cells. Nature of the assay: IL-4 and IFN-γ secreting cells (ELISPOT) in skin-draining lymph nodes and spleens. Particulars: concomitantly administered with A/California/07/09 subunit influenza vaccine in murine skin.

SMILES strings stand for the structures.

As for `C=CC(=O)Nc1ccc2ncnc(Nc3cccc(Br)c3)c2c1` [PD168393, N-[4-(3-bromoanilino)quinazolin-6-yl]prop-2-enamide], the “influenza-specific neutralizing antibody titters” value in assay [1] is reported as “significantly enhanced”. In addition, the cellular immune responses result in assay [2] is reported as “significantly enhanced”.
